Source: publication PMC6919601, “Identification of Plasmodium dipeptidyl aminopeptidase allosteric inhibitors by high throughput screening” (PLoS ONE, 2019)
About 230 (0.21%) of roughly 110,000 compounds showed an effect of 50% or more. The list shows a part of the results.
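Note: 30 min substrate incubation versus DMSO and 10 µM JCP410 controls.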

What follows are molecules tested against DPAP1 (Plasmodium falciparum, UniProt Q8IIJ9) (assay: primary screen, percent inhibition; read by cleavage of a fluorogenic dipeptide substrate; higher = more effect of the substance).
Sequence of DPAP1 (Q8IIJ9 whole entry, looked up): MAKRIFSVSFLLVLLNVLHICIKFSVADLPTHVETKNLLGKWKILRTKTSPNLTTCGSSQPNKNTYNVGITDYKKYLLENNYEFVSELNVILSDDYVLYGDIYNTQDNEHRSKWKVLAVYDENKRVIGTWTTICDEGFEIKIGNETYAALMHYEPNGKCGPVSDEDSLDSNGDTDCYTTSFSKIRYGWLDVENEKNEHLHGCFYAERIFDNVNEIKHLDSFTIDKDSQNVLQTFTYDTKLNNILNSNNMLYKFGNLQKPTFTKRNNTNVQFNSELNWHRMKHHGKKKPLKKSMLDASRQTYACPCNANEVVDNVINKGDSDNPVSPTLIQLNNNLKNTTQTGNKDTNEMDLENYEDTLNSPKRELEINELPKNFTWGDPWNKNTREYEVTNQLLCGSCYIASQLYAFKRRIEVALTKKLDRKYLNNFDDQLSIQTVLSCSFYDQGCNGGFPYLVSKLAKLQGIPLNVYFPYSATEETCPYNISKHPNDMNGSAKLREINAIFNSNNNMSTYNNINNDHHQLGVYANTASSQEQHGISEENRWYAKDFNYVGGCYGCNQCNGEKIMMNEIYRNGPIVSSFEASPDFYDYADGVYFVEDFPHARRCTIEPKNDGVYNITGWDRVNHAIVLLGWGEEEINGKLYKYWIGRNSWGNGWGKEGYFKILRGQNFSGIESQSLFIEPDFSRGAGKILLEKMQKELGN
Design: species or system P. falciparum D10 trophozoite lysates; single well
In the case of `COc1ccc(C(=O)Nc2cc(C)on2)c(OC)c1`, the “% Inhibition @ 10 uM” value is reported as 3.01%.
For `COc1ccc(CC/N=C2/C=C(O)CC(C)(C)C2)cc1`, the “% Inhibition @ 10 uM” value was -2.68%.
With `COc1ccccc1NS(=O)(=O)c1c(C)cc(C)cc1C` the “% Inhibition @ 10 uM” value was -2.6%.
With `CCOC(=O)N1CCN(C(=O)c2cn(C)c(=O)c3cc(OC)c(OC)cc23)CC1` the “% Inhibition @ 10 uM” value was -4.86%.
In the case of `Cc1cccc(-n2c(C)cc(/C=C3\C(=N)N4N=C(S(C)(=O)=O)SC4=NC3=O)c2C)c1C`, the “% Inhibition @ 10 uM” value is reported as 8.11%.
With `CN(C1CCCCC1)S(=O)(=O)c1ccc(F)cc1` the “% Inhibition @ 10 uM” value was 3.48%.
In the case of `CC1CCC(C(C)C)C(OCC(O)CN2CCCC(C)C2)C1` (stereo not drawn), the “% Inhibition @ 10 uM” value is reported as -8.19%.
`C/C=C/C1(NCCc2ccccc2)CCCCC1` was tested, and the “% Inhibition @ 10 uM” value was 2.57%.
For `COc1cccc(-c2nnc(SCC(=O)N3CCCC3)o2)c1`, the “% Inhibition @ 10 uM” value was 1.3%.
With `CCOc1ccc2nc(NC(=O)Nc3cccs3)sc2c1` the “% Inhibition @ 10 uM” value was -1.11%.
`CC1=C(C(=O)OCC2CCCCC2)C(c2ccc(F)cc2)NC(=O)N1` (stereo not drawn) was tested, and the “% Inhibition @ 10 uM” value was 3.61%.
With `O=C(Cn1ncn2c(cc3sccc32)c1=O)N1CCCCCC1` the “% Inhibition @ 10 uM” value was -9.07%.
`CC(C)OCCCn1c(=O)c2ccccc2n2c(CCC(=O)NCc3cccnc3)nnc12` was tested, and the “% Inhibition @ 10 uM” value was -1.44%.
In the case of `Cc1nnc(N2CCC(C(=O)N3CCN(c4ccccn4)CC3)CC2)c2nn(-c3ccccc3)c(C)c12`, the “% Inhibition @ 10 uM” value is reported as 2.92%.
In the case of `O=C(Nc1nc2nc3c(c(O)n2n1)CCC3)c1ccc(Cl)cc1`, the “% Inhibition @ 10 uM” value is reported as 0.401%.
In the case of `Cc1ccc(OCCn2c(N)nc3ccccc32)cc1`, the “% Inhibition @ 10 uM” value is reported as -0.996%.
For `O=C1c2ccccc2C(=O)N1CN1CCN(Cc2ccc3c(c2)OCO3)CC1`, the “% Inhibition @ 10 uM” value was 1.64%.
For `CNC(=S)NCc1ccc2[nH]c3c(c2c1)CCCC3`, the “% Inhibition @ 10 uM” value was -0.138%.
For `N#Cc1c(-c2cccc(Br)c2)cc(C2CC2)nc1N`, the “% Inhibition @ 10 uM” value was 0.345%.
With `CCCN(C)C(=O)c1c(O)nc2ccccc2c1O` the “% Inhibition @ 10 uM” value was 1.96%.
In the case of `CC(=O)c1ccc(NC(=O)C2Cc3ccccc3CN2S(=O)(=O)c2cccs2)cc1` (stereo not drawn), the “% Inhibition @ 10 uM” value is reported as -0.185%.
`CCN(CC)C(=O)C1CCCN(Cc2ccccc2C)C1` (stereo not drawn) was tested, and the “% Inhibition @ 10 uM” value was -0.0404%.
`CCCCCCCCP(=O)(O)c1ccccc1` was tested, and the “% Inhibition @ 10 uM” value was 5.09%.
With `COc1ccc(-c2nnc3sc(NC(C)=O)nn23)cc1OC` the “% Inhibition @ 10 uM” value was 0.00665%.
`CCc1nn(CC(=O)NC2CCN(Cc3ccccc3)CC2)c(=O)c2cc3sccc3n12` was tested, and the “% Inhibition @ 10 uM” value was 3.4%.
`O=C(O)c1ccc(O)nc1` was tested, and the “% Inhibition @ 10 uM” value was 0.883%.
For `Clc1cccc(CN2CCN(c3ccccc3)CC2)c1Cl`, the “% Inhibition @ 10 uM” value was -3.65%.
In the case of `Cc1ccc2nc(-c3ccc(NC(=O)c4ccoc4C)cc3)sc2c1`, the “% Inhibition @ 10 uM” value is reported as -3.24%.
With `C=CCNC(=O)c1c(NC(=O)c2ccco2)sc2c1CCCC2` the “% Inhibition @ 10 uM” value was 0.528%.
With `COc1ccc2cc(C3C4=C(CC(C)(C)CC4=O)OC4=C3C(=O)CC(C)(C)C4)c(O)nc2c1` the “% Inhibition @ 10 uM” value was 2.26%.
For `CCOc1ccc(-c2cc(NC(=O)Cc3noc4ccc(C)cc34)on2)cc1`, the “% Inhibition @ 10 uM” value was -2.27%.
In the case of `OCC1CCCN1Cc1c(F)cccc1F` (stereo not drawn), the “% Inhibition @ 10 uM” value is reported as -6%.
In the case of `CC1=NN(C(=O)c2ccc(COc3ccc(Cl)cc3)o2)C(O)(C(F)(F)F)C1` (stereo not drawn), the “% Inhibition @ 10 uM” value is reported as 4.03%.
With `CCOC(=O)N1CCN(C(=O)c2cnn(-c3ccccc3)c2NC(=O)c2ccccc2F)CC1` the “% Inhibition @ 10 uM” value was -1.24%.
In the case of `COCCCN1C(=O)/C(=C\c2ccc(OC)cc2OC)C(C(=O)OC)=C1C`, the “% Inhibition @ 10 uM” value is reported as -5.26%.
With `Cc1[nH]c2c(Cl)ccc(Cl)c2c1CCNC(=O)Cn1nc(C)c2ccccc2c1=O` the “% Inhibition @ 10 uM” value was 2.18%.
With `COc1cc(OC)cc(-n2nnc(-c3nsc(NC(=O)c4cccs4)n3)c2C)c1` the “% Inhibition @ 10 uM” value was -0.656%.
With `Cc1cc(Br)ccc1OCC(=O)Nc1cccc(C#N)c1` the “% Inhibition @ 10 uM” value was 0.161%.
`Cc1ccc(NC(=O)c2cnc(Nc3nc4ccccc4o3)nc2C)cc1` was tested, and the “% Inhibition @ 10 uM” value was 4.31%.
For `O=C(CC1(O)C(=O)Nc2ccc(Br)cc21)c1ccc2c(c1)CCCC2` (stereo not drawn), the “% Inhibition @ 10 uM” value was -7.62%.
In the case of `CCOCCCNC(=O)c1ccc(NC(C)=O)cc1`, the “% Inhibition @ 10 uM” value is reported as -4.14%.
With `N#CC1=C(N)Oc2[nH]nc(-c3ccc(F)cc3)c2C1c1cccnc1` (stereo not drawn) the “% Inhibition @ 10 uM” value was -3.77%.
In the case of `NC(=O)CSc1nc(-c2ccccc2)nc2c1Cc1ccccc1O2`, the “% Inhibition @ 10 uM” value is reported as -2.92%.
`COC(=O)c1ccc(NC(=O)COc2ccccc2)cc1` was tested, and the “% Inhibition @ 10 uM” value was 3.01%.
For `Cc1noc(/C=C/c2cccs2)c1S(=O)(=O)N1CCC(C(=O)Nc2ccncc2)CC1`, the “% Inhibition @ 10 uM” value was -1.28%.
`CCOc1ccccc1CNCc1c(C(=O)O)n(Cc2ccccc2C)c2ccccc12` was tested, and the “% Inhibition @ 10 uM” value was 0.49%.
For `CCOc1ccc(N2C(=O)CC(N3CCCC4CCCCC43)C2=O)cc1` (stereo not drawn), the “% Inhibition @ 10 uM” value was 4.83%.
For `Cc1ccccc1C(=O)n1nnc2ccccc21`, the “% Inhibition @ 10 uM” value was 7.49%.
In the case of `Cc1ccc(NC(=O)Cn2cnc3c(=O)n(C)c(=O)n(C)c32)cc1Cl`, the “% Inhibition @ 10 uM” value is reported as -1.61%.
With `CCn1c(=O)c2sccc2n2c(CCCC(=O)N3CCN(c4ccccn4)CC3)nnc12` the “% Inhibition @ 10 uM” value was -0.519%.
For `Cc1ccc(C(=O)N/C(=C\c2cccs2)C(=O)NCc2ccccc2F)cc1C`, the “% Inhibition @ 10 uM” value was 2.46%.
